Tests used:
[1] = target: PD-L1 on GS-C2/PD-L1 cells (UniProt Q9NZQ7); assay: cell-based or functional assay
[2] = target: T1, PD-L1 (UniProt Q9NZQ7 in part, limits assumed); assay: SPR (Biacore 8K), sample captured on Protein A chip, PD-L1 as analyte, 25 °C
T1 construct: also called 分析物PD-L1

Chain of PD-L1 (Q9NZQ7 19-238 limits assumed): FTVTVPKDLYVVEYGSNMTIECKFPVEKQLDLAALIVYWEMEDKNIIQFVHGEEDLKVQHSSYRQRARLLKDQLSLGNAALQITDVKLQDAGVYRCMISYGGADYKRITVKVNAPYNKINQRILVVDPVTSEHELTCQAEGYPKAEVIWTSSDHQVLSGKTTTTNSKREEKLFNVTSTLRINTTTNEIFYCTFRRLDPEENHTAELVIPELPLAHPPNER

PD1/PD-L1结合阻断 EC50 (luciferase reporter) [1]	Kd [2]	koff [2]	kon [2]	Binder
14.4 nM	0.329 nM	–	–	46-24 PD-L1/VEGFRI抗体融合蛋白 (other) chain 1: EVQLVQSGAEVKKPGASVKVSCKASGYTFTKYIIHWVRQAPGQGLEWMGWFYPGSGNIRYNEKIKGRVTMTRDTSTSTVYMELSSLRSEDTAVYYCARHGELGGGYFFDYWGQGTTVTVSS[no letters for human IgG1 constant region]GGGGSGGGGSGGGGSGRPFVEMYSEIPEIIHMTEGRELVIPCRVTSPNITVTLKKFPLDTLIPDGKRIIWDSRKGFIISNATYKEIGLLTCEATVNGHLYKTNYLTHRQTNTI chain 2: DIQLTQSPSFLSASVGDRVTITCRASSSVSNIHWYQQKPGKAPKPWIYATSNLASGVPSRFSGSGSGTEFTLTISSLQPEDFATYYCQQWSSNPLTFGQGTKLEIKRTVAAPSVFIFPPSDEQLKSGTASVVCLLNNFYPREAKVQWKVDNALQSGNSQESVTEQDSKDSTYSLSSTLTLSKADYEKHKVYACEVTHQGLSSPVTKSFNRGEC
12.2 nM	0.365 nM	0.000192 s⁻¹	525000 M⁻¹ s⁻¹	23-47 PD-L1/VEGFRI抗体融合蛋白 (other) chain 1: EVQLVQSGAEVKKPGASVKVSCKASGYTFTKYIIHWVRQAPGQGLEWMGWFYPGSGNIRYNEKIKGRVTMTRDTSTSTVYMELSSLRSEDTAVYYCARHGELGGGYFFDYWGQGTTVTVSS[no letters for human IgG1 constant region] chain 2: DIQLTQSPSFLSASVGDRVTITCRASSSVSNIHWYQQKPGKAPKPWIYATSNLASGVPSRFSGSGSGTEFTLTISSLQPEDFATYYCQQWSSNPLTFGQGTKLEIKRTVAAPSVFIFPPSDEQLKSGTASVVCLLNNFYPREAKVQWKVDNALQSGNSQESVTEQDSKDSTYSLSSTLTLSKADYEKHKVYACEVTHQGLSSPVTKSFNRGECGGGGSGGGGSGGGGSGRPFVEMYSEIPEIIHMTEGRELVIPCRVTSPNITVTLKKFPLDTLIPDGKRIIWDSRKGFIISNATYKEIGLLTCEATVNGHLYKTNYLTHRQTNTI
